Test results taken from publication PMC4336329 (PLoS ONE, 2015).
Among all 310,000 compounds or so, about 2,200 (0.71%) showed an effect of 50% or more. The effect is printed as a negative number. The list shows a part of the results.

The compounds below were run against human ether-à-go-go-related gene (hERG) potassium channel (human, UniProt Q12809) (assay: primary screen, population patch clamp on CHO cells stably expressing hERG).
Sequence of human ether-à-go-go-related gene (hERG) potassium channel (Q12809 whole entry, looked up): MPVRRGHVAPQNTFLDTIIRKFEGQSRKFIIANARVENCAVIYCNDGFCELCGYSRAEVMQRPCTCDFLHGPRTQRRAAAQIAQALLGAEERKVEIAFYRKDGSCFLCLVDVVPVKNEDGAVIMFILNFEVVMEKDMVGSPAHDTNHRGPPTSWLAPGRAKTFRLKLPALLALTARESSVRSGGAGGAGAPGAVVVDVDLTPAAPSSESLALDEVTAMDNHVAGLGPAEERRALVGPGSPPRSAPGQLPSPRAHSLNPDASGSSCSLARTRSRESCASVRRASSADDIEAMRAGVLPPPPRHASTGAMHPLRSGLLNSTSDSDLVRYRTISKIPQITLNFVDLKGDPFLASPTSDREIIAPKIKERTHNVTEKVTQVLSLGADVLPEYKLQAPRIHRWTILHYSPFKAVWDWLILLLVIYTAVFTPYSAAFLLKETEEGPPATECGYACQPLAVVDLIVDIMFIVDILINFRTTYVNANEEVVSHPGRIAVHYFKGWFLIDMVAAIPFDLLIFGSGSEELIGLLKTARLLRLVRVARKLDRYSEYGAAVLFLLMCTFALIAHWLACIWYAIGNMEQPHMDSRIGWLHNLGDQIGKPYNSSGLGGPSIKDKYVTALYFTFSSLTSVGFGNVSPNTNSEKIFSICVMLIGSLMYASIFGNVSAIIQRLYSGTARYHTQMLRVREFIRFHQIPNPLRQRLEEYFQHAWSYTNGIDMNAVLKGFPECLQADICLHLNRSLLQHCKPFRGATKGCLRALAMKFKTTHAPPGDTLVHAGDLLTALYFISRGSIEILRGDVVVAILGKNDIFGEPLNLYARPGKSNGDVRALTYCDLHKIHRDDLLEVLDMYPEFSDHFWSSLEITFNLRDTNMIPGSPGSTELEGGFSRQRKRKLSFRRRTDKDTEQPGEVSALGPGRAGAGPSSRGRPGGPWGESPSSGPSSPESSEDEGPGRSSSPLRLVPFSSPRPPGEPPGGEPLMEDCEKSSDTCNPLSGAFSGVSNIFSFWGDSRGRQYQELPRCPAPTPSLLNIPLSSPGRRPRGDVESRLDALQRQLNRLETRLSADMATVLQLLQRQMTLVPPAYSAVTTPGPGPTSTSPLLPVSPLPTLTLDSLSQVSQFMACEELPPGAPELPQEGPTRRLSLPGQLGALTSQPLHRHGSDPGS

**Q.** With NC(=O)C1CCN(C(=O)c2ccc3c(=O)n(Cc4cccc(Br)c4)c(=S)[nH]c3c2)CC1 as the compound, how does the “hERG current change (%, negative = inhibition) at 1uM” value read?
**A.** 6.12%

**Q.** Cn1cc(/C=C/c2nc3ccccc3c(=O)n2-c2cccc([N+](=O)[O-])c2)c2ccccc21 was tested. Which “hERG current change (%, negative = inhibition) at 1uM” value did it give?
**A.** -0.779%

**Q.** For COCC(O)CSc1nc(C)[nH]c1[N+](=O)[O-] (centres unmarked), which “hERG current change (%, negative = inhibition) at 1uM” value is on record?
**A.** -1.58%

**Q.** COCc1c(N)c(C)nc(Cl)c1C#N.Cl was tested. Which “hERG current change (%, negative = inhibition) at 1uM” value did it give?
**A.** 20.3%

**Q.** Which “hERG current change (%, negative = inhibition) at 1uM” value does the source give for Cc1[nH]c2ccc(C(=O)OCCN(C)C)cc2c1C here?
**A.** 2.1%

**Q.** For O=C(O)C(=O)O.c1ccc(COc2ccc(OCCCCN3CCCCC3)cc2)cc1, which “hERG current change (%, negative = inhibition) at 1uM” value is on record?
**A.** -46.8%

**Q.** How did the “hERG current change (%, negative = inhibition) at 1uM” value turn out when O=C(C1=C[C@H](c2ccc(C(F)(F)F)cc2)C[C@H](OCc2ccc(CO)cc2)O1)N1CCCCCCC1 was run?
**A.** 5.66%

**Q.** CC(OC(=O)c1ccc(Cl)nc1)C(=O)NCc1ccc2c(c1)OCO2 (centres unmarked) was tested. Which “hERG current change (%, negative = inhibition) at 1uM” value did it give?
**A.** -6.96%

**Q.** Which “hERG current change (%, negative = inhibition) at 1uM” value does the source give for O=C(NC1CCSc2ccccc21)c1cccc(S(=O)(=O)N2CCOCC2)c1 (centres unmarked) here?
**A.** 12.4%

**Q.** How did the “hERG current change (%, negative = inhibition) at 1uM” value turn out when Cc1noc(C)c1CSc1nnc(-c2cc(Cl)ccc2Cl)n1N was run?
**A.** 13.3%

**Q.** Which “hERG current change (%, negative = inhibition) at 1uM” value does the source give for CC(C)CC(=O)NC(=S)Nc1ccc(N2CCOCC2)cc1 here?
**A.** 4.99%

**Q.** Cl.c1ccc(NNC2=NCCCCC2)cc1 was tested. Which “hERG current change (%, negative = inhibition) at 1uM” value did it give?
**A.** 13.1%

**Q.** How did the “hERG current change (%, negative = inhibition) at 1uM” value turn out when O=C(CSc1cnc2ccccc2n1)NC1CCCC1 was run?
**A.** 0.651%

**Q.** CCOC(=O)N1CCN(S(=O)(=O)c2ccc3c(c2)CC(C)N3C(=O)C2CC2)CC1 (centres unmarked) was tested. Which “hERG current change (%, negative = inhibition) at 1uM” value did it give?
**A.** 20.7%

**Q.** Which “hERG current change (%, negative = inhibition) at 1uM” value does the source give for COc1ccccc1C(=O)NC(C)c1ccccc1 (centres unmarked) here?
**A.** 18.2%

**Q.** COc1ccc(S(=O)(=O)Nc2ccc(S(=O)(=O)N(C)C)cc2)cc1[N+](=O)[O-] was tested. Which “hERG current change (%, negative = inhibition) at 1uM” value did it give?
**A.** 3.83%

**Q.** With O=C(Nc1ccc(Cl)cc1)Nc1ccccc1NS(=O)(=O)c1cccs1 as the compound, how does the “hERG current change (%, negative = inhibition) at 1uM” value read?
**A.** 12.4%

**Q.** For Cc1nn(-c2ccc(F)cc2)c(Cl)c1/C=C(\CC(=O)O)c1nc2ccccc2s1, which “hERG current change (%, negative = inhibition) at 1uM” value is on record?
**A.** -0.919%

**Q.** For CCCCOc1ccc(C(=O)CCN2CCCCC2)cc1.Cl, which “hERG current change (%, negative = inhibition) at 1uM” value is on record?
**A.** -24.1%

**Q.** Which “hERG current change (%, negative = inhibition) at 1uM” value does the source give for O=C(Nc1ccc(S(=O)(=O)N2CCCCC2)cc1)c1ccc(CN2CCOCC2)cc1 here?
**A.** -8.92%

**Q.** Cc1ccc(CCNC(=O)NC(C)(C)C)cc1 was tested. Which “hERG current change (%, negative = inhibition) at 1uM” value did it give?
**A.** 6.2%

**Q.** Which “hERG current change (%, negative = inhibition) at 1uM” value does the source give for CCOc1ccccc1C(C(=O)NC1CCCC1)N(Cc1ccco1)C(=O)CNC(=O)c1ccco1 (centres unmarked) here?
**A.** 5.42%

**Q.** Which “hERG current change (%, negative = inhibition) at 1uM” value does the source give for COc1ccc(CNCCCO)cc1OC here?
**A.** 11.5%

**Q.** CCCC1=Nc2cc(C(=O)NCCN3CCCC3)ccc2Sc2ccccc21 was tested. Which “hERG current change (%, negative = inhibition) at 1uM” value did it give?
**A.** 3.75%

**Q.** Which “hERG current change (%, negative = inhibition) at 1uM” value does the source give for N#CC1CN(C(c2ccccc2)c2ccccc2)C1 here?
**A.** 7.35%

**Q.** How did the “hERG current change (%, negative = inhibition) at 1uM” value turn out when COC(=O)C/C(N)=C(\C#N)C(=O)OC was run?
**A.** 13.3%

**Q.** With COc1ccc(NC(=O)CCNS(=O)(=O)c2cccc3nsnc23)c(OC)c1 as the compound, how does the “hERG current change (%, negative = inhibition) at 1uM” value read?
**A.** 11%

**Q.** For Cc1cc2cc3c(=O)[nH]c(=O)[nH]c3nc2cc1C, which “hERG current change (%, negative = inhibition) at 1uM” value is on record?
**A.** 12.1%

**Q.** O=c1c(Cc2ccc(F)cc2)c(O)ccn1Cc1ccco1 was tested. Which “hERG current change (%, negative = inhibition) at 1uM” value did it give?
**A.** 9.56%

**Q.** For C#CCN(N(C)c1ncc(C(F)(F)F)cc1Cl)S(=O)(=O)c1ccc2ccccc2c1, which “hERG current change (%, negative = inhibition) at 1uM” value is on record?
**A.** 14.3%

**Q.** O=[N+]([O-])c1ccc(Oc2cc(NC3CCCCCCC3)c([N+](=O)[O-])cc2[N+](=O)[O-])cc1 was tested. Which “hERG current change (%, negative = inhibition) at 1uM” value did it give?
**A.** -8.21%

**Q.** How did the “hERG current change (%, negative = inhibition) at 1uM” value turn out when FC(F)(F)c1cc(Cl)c2nnc(C(F)(F)Cl)n2c1 was run?
**A.** 7.19%

**Q.** How did the “hERG current change (%, negative = inhibition) at 1uM” value turn out when Fc1ccc(Nc2nc(-c3ccncc3)nc3ccccc23)cc1 was run?
**A.** 6.38%

**Q.** CC(=O)c1c(N2CCN(C)CC2)nc(=S)n(-c2cc(C)ccc2C)c1C was tested. Which “hERG current change (%, negative = inhibition) at 1uM” value did it give?
**A.** 13.3%

**Q.** Which “hERG current change (%, negative = inhibition) at 1uM” value does the source give for O=C(COC(=O)CCCc1nc2ccccc2s1)NC(=O)NCc1ccco1 here?
**A.** 13.7%

**Q.** Which “hERG current change (%, negative = inhibition) at 1uM” value does the source give for CCOc1ccc2nc(NC(=O)c3ccco3)sc2c1 here?
**A.** 14.5%

**Q.** With O=C(NCc1ccco1)c1ccc2ccccc2c1 as the compound, how does the “hERG current change (%, negative = inhibition) at 1uM” value read?
**A.** 3.04%

**Q.** How did the “hERG current change (%, negative = inhibition) at 1uM” value turn out when COc1ccc(/C(N)=N/OC(=O)CCc2ccccc2)cc1OC was run?
**A.** -3.29%

**Q.** For O=C(CN1C(=O)/C(=C\c2ccco2)SC1=S)Nc1ccc(O)cc1C(=O)O, which “hERG current change (%, negative = inhibition) at 1uM” value is on record?
**A.** 6.18%

**Q.** Which “hERG current change (%, negative = inhibition) at 1uM” value does the source give for O=[N+]([O-])C(=C1Nc2ccccc2N1)C(Cl)=C(Cl)Cl here?
**A.** 14.6%

**Q.** O=C(Nc1cccnc1)c1cc(-c2cccc(Br)c2)nc2ccccc12 was tested. Which “hERG current change (%, negative = inhibition) at 1uM” value did it give?
**A.** -0.648%

**Q.** Which “hERG current change (%, negative = inhibition) at 1uM” value does the source give for Cc1cccc(OCc2nnc(SCC(=O)c3cccs3)n2C)c1C here?
**A.** -1.86%

**Q.** How did the “hERG current change (%, negative = inhibition) at 1uM” value turn out when Cc1[nH]c(=O)[nH]c(=O)c1NS(=O)(=O)c1ccccc1 was run?
**A.** 25%

**Q.** With Cc1[nH]c2ccccc2c1C(=O)COC(=O)c1c(-c2ccccc2)noc1C as the compound, how does the “hERG current change (%, negative = inhibition) at 1uM” value read?
**A.** 2.68%
